From paper PMC4336329 (PLoS ONE, 2015) come the findings set out here.

In all, about 310,000 compounds went through this assay and about 14,000 (4.5%) showed an effect of 50% or more. Effects have a minus sign here. The list shows a part of the results.
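Also: peak tail current of the secondary pulse compared with the same well before compound.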

The target in this assay is human ether-à-go-go-related gene (hERG) potassium channel (human, UniProt Q12809). In words: primary screen, population patch clamp on CHO cells stably expressing hERG.
Chain of human ether-à-go-go-related gene (hERG) potassium channel (Q12809 whole entry, looked up): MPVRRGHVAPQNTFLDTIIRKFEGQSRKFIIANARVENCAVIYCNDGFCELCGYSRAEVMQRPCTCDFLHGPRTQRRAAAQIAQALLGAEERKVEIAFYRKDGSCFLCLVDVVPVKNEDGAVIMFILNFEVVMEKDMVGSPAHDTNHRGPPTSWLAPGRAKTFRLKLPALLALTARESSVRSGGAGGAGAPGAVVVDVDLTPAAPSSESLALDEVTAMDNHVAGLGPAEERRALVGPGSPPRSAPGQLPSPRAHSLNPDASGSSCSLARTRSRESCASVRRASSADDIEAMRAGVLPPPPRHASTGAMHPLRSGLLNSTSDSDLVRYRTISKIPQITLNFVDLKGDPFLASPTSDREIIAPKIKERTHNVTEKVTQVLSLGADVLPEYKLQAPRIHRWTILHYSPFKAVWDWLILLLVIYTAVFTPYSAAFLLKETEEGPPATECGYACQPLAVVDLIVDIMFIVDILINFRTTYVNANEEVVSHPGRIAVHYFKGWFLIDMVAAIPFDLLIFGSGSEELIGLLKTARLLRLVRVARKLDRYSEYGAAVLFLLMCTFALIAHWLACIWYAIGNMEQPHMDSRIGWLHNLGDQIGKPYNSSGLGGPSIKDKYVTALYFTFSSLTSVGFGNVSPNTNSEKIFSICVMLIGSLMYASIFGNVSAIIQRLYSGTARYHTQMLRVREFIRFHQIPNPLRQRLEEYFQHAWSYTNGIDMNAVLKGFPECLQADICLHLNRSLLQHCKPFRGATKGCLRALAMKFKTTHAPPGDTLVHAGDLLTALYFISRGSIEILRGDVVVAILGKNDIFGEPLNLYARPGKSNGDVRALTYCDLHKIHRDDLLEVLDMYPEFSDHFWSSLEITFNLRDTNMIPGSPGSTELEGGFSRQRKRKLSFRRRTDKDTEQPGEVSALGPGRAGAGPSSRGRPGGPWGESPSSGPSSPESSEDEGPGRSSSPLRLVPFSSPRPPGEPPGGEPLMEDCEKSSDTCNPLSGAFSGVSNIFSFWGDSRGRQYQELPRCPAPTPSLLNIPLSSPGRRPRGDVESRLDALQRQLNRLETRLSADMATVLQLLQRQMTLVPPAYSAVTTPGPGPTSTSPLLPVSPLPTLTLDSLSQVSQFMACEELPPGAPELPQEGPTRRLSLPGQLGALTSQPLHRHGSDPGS
Consider `Cc1onc(-c2c(F)cccc2Cl)c1C(=O)OCC(=O)c1c[nH]c2ccccc12`, for which the “hERG current change (%, negative = inhibition) at 10uM” value was 8.02%. As for `COCC(=O)N1CCc2ccc(NC(=O)c3ccc(C(F)(F)F)cc3)cc2C1`, the “hERG current change (%, negative = inhibition) at 10uM” value is given as -38.3%. In the case of `O=c1[nH]c2ccc(S(=O)(=O)N3CCCCC3)cc2[nH]1` it was 14.2%; in that of `COc1cc(-n2c(C)nc3cc(C(=O)N4CCOCC4)ccc32)cc(OC)c1OC`, 0.933%. The value for `CCOc1ccc(N2C(=O)CC(SC(=NC)Nc3cccc(F)c3)C2=O)cc1` (centres unmarked) was -2.81%; that for `COc1ccc(S(=O)(=O)NCc2cccnc2)c2ccccc12` was 5.55%; that for `CCNC(=O)c1ccccc1NC(=O)C1CC(=O)N(C(C)C)C1` (centres unmarked) was 9.78%.

For `NCCSc1c(-c2ccc(Cl)cc2)[nH]c2ccccc12`, the “hERG current change (%, negative = inhibition) at 10uM” value was -84.3%.

For the molecule `COC(=O)c1c(NC(=O)CC2SC(N)=NC2=O)sc2c1CCC(C)C2` (centres unmarked), the “hERG current change (%, negative = inhibition) at 10uM” value was determined as 4.92%.

Take `Cc1csc(NC(=O)Nc2cccc(Cl)c2)n1`: the “hERG current change (%, negative = inhibition) at 10uM” value was 0.132%. Regarding `O=C(Nc1nnc(-c2ccco2)o1)C1CCCCC1`, the “hERG current change (%, negative = inhibition) at 10uM” value is recorded as 3.61%. As to `Cc1ccc(N(CC(=O)NCc2cccs2)S(=O)(=O)c2cccs2)cc1`, the “hERG current change (%, negative = inhibition) at 10uM” value is recorded as 1.23%. The value for `Nc1nnc(COc2ccccc2)s1` was -2.39%. On to `COCCNC(=S)NNC(=O)c1ccc(-n2cnnn2)cc1`, for which the “hERG current change (%, negative = inhibition) at 10uM” value is given as 8.42%.

On to `COC(=O)C1=C(C)N(Cc2ccccc2)C(=O)N[C@H]1c1ccco1`, for which the “hERG current change (%, negative = inhibition) at 10uM” value worked out at 5.95%. In the case of `COC(=O)CNC(=O)Cn1ccc2ccccc2c1=O` it was 10.8%; in that of `Cc1cccc(C)c1Nc1nnc(SCC(=O)c2ccc3c(c2)NC(=O)CO3)s1`, 3.55%; in that of `Oc1ccc(/C=N/N=C/c2ccc(O)cc2)cc1`, 23.5%. Turning to `O=C(NCc1ccc(-c2csnn2)cc1)c1cccs1`, the “hERG current change (%, negative = inhibition) at 10uM” value is on record as -6.3%. As for `COCCn1nnnc1C(c1cccc(OC)c1OC)N1CCN(C(=O)c2ccco2)CC1.Cl` (centres unmarked), the “hERG current change (%, negative = inhibition) at 10uM” value is given as 10.2%. In the case of `c1ccc(C2=NNC(=NCc3ccc4c(c3)OCO4)SC2)cc1`, the “hERG current change (%, negative = inhibition) at 10uM” value was -29.9%. In the case of `CSc1ccccc1NC(=O)C1=CC(c2cccs2)=NS(=O)(=O)N1C` it was -18.6%; in that of `C/C(CC(=O)Nc1ccc2c(c1)OCCO2)=N\NC(=O)COc1ccccc1C`, 2.39%; in that of `CC1CCN(C(=O)CSc2nnc(CNC(=O)c3c(F)cccc3F)o2)CC1`, 18.3%. In the case of `S=c1[nH]nc(-c2ccncc2)n1/N=C/c1ccccc1` it was 16.4%.

Take `O=S(=O)(NC1CCCCC1N1CCCCC1)c1ccc(Cl)cc1` (centres unmarked): the “hERG current change (%, negative = inhibition) at 10uM” value is on record as -5.16%.
